# Experimental data reported in the supplement of paper PMC4166925.
# ± gives the standard deviation of the averaged measurements. Whole data set: some 33,000 sequences, median “E-score (dimensionless, -0.5 to 0.5)” near -0.046, cut for the highest 2% near 0.36. The list shows a part of the results.
# Tested on: T1, SpTbr T-box DNA-binding domain (GST fusion)
# T1 sequence: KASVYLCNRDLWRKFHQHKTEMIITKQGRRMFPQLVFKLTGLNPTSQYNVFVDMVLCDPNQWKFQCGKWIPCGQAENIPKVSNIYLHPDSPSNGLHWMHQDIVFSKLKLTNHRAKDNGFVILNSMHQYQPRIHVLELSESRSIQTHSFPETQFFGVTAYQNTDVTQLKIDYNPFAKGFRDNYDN
# Test: PBM E-score of 8-mer (E-score (dimensionless, -0.5 to 0.5)); Tbr is Tbrain of the sea star Patiria miniata (Pm) or the sea urchin Strongylocentrotus purpuratus (Sp); higher = stronger binding preference; most listed sequences are background and not binding sites
# Conditions: the construct has about 5 more residues each side
# Method in brief: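 Using the Universal PBM Analysis Suite, every ungapped 8-mer received an enrichment E-score averaged over duplicate arrays. Probe intensities came from double-stranded Universal Agilent oligonucleotide arrays incubated with 200 nM GST-fused Tbr T-box DNA-binding domain in PBS (pH 7.5). That protein was expressed in BL21 E. coli at 20 °C and purified by glutathione affinity chromatography.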
row,Sequence,PBM E-score of 8-mer
1,GAGGCTCA,-0.129 ± 0.025
2,GCATACAC,0.0478 ± 0.089
3,AAATATAG,-0.0849 ± 0.002
4,CAGTGTAC,-0.0521 ± 0.026
5,TAACAATA,0.1776 ± 0.0016
6,CACAACTA,0.2177 ± 0.00043
7,ATGGTTGA,0.0176 ± 0.022
8,ACGGCCAC,0.036 ± 0.0052
9,CGCGTGGC,0.143 ± 0.068
10,AATTCAGG,-0.189 ± 0.017
11,CTCACAAA,0.00513 ± 0.071
12,AATCAATG,0.0077 ± 0.038
13,GGTGCTAA,0.4658 ± 0.00059
14,GTGTGAGA,0.4699 ± 0.0024
15,AATCTACG,-0.0969 ± 0.03
16,AATGTTAG,-0.14 ± 0.049
17,CACAAGCG,0.12 ± 0.021
18,GCTCCTGA,-0.172 ± 0.096
19,GAGAGAAC,0.109 ± 0.073
20,ACTGGAAT,-0.231 ± 0.01
21,CGCAGGGC,0.11 ± 0.021
22,CGGTTGCC,-0.0673 ± 0.047
23,CGGAATAG,-0.28 ± 0.039
24,TATCTTCA,0.0176 ± 0.064
25,TCAAATAA,-0.00673 ± 0.035

row,Sequence,PBM E-score of 8-mer
1,ATTTCTCA,0.0557 ± 0.057
2,ATGGGTTC,-0.166 ± 0.048
3,AGGGTATA,0.0465 ± 0.026
4,ACTGTAGA,0.0389 ± 0.042
5,CGGGGTAC,0.0318 ± 0.03
6,CAGGTCGC,0.225 ± 0.038
7,CAGCGTAC,-0.168 ± 0.039
8,CTCCTTTC,-0.154 ± 0.023
9,AAGCTTTA,-0.199 ± 0.049
10,GACCCAAC,-0.145 ± 0.029
11,CCAAGGCA,-0.112 ± 0.0028
12,ACCGTGTC,0.107 ± 0.0065
13,ACACTTCC,0.417 ± 0.016
14,AATGTCGC,0.162 ± 0.004
15,GGGTCGAC,-0.131 ± 0.036
16,CTCCGGCA,0.0686 ± 0.041
17,GGTCGCAA,0.208 ± 0.029
18,ATCACTTG,0.169 ± 0.064
19,GCGGGGGA,-0.0377 ± 0.042
20,CCATCACC,0.214 ± 0.011
21,ATATAGGA,-0.218 ± 0.035
22,GCCTATCA,0.134 ± 0.052
23,ATGTGATC,0.1517 ± 0.00082
24,CGTATAAA,-0.0902 ± 0.0068
25,GCGGTGAC,0.136 ± 0.084

row,Sequence,PBM E-score of 8-mer
1,TAAGGCCA,-0.136 ± 0.023
2,CTACGCGC,0.197 ± 0.055
3,GCGATTGA,0.129 ± 0.023
4,ACAGTTCT,0.109 ± 0.037
5,CGAGCAAG,-0.0831 ± 0.035
6,TCTGCGAA,0.202 ± 0.04
7,ACGTGTCA,0.458 ± 0.0068
8,ACTCAGTA,0.0241 ± 0.0054
9,GACTCAGC,-0.134 ± 0.014
10,CCACAAGC,-0.00571 ± 0.011
11,CAACGCCG,0.124 ± 0.066
12,CCGTGTAA,0.176 ± 0.034
13,CTACTCAA,-0.0464 ± 0.031
14,AAGGCACC,0.0848 ± 0.0052
15,GCGGGGCA,-0.0613 ± 0.16
16,CAGCTTTC,0.113 ± 0.051
17,AACAGAAG,-0.19 ± 0.051
18,GCATCTAC,-0.113 ± 0.052
19,CTGCTCTC,-0.124 ± 0.03
20,GACGACCC,0.00875 ± 0.042
21,CGCCGTAC,-0.192 ± 0.081
22,ACTCCGAG,-0.135 ± 0.021
23,ACCTCGGG,-0.0119 ± 0.054
24,GAGGGTAA,-0.217 ± 0.039
25,ACTCAATG,-0.0504 ± 0.02

row,Sequence,PBM E-score of 8-mer
1,GTTTTATA,-0.234 ± 0.094
2,ACGATTCT,-0.0459 ± 0.089
3,ACAAAACC,-0.0407 ± 0.031
4,GACAGATC,0.0373 ± 0.0047
5,AACTCCCT,-0.203 ± 0.064
6,CATTTATC,-0.0576 ± 0.052
7,AAGCGGAG,-0.184 ± 0.048
8,CTCCGTAA,-0.0525 ± 0.031
9,CGCGACAG,0.292 ± 0.037
10,CGCACAGA,-0.173 ± 0.052
11,CCCATCTC,-0.0682 ± 0.07
12,AATGTACC,-0.134 ± 0.014
13,TGAACTAA,0.00895 ± 0.033
14,CTCGAGAG,-0.0479 ± 0.0086
15,GGATAACC,0.0395 ± 0.035
16,AAGTTATC,0.0893 ± 0.0073
17,CCTACTCA,0.165 ± 0.084
18,CGTTTCCC,0.0811 ± 0.074
19,GTAGGAGA,-0.248 ± 0.032
20,AAAGACAG,-0.197 ± 0.0058
21,CCCAGTAG,-0.0339 ± 0.064
22,GGCATAAA,-0.0744 ± 0.027
23,GACCTGAC,0.0333 ± 0.08
24,ACAGTGAA,0.151 ± 0.018
25,AGAGGGCG,0.05 ± 0.019

row,Sequence,PBM E-score of 8-mer
1,GAGGCCCA,-0.307 ± 0.041
2,AGCCCCTA,-0.0793 ± 0.026
3,GAGATCGC,0.266 ± 0.024
4,ACGGTGAG,0.0305 ± 0.02
5,CATCCTGA,-0.0422 ± 0.062
6,CCATGGTA,-0.121 ± 0.015
7,CCCCCAAA,-0.3559 ± 0.0013
8,TACCGCAA,0.0292 ± 0.028
9,CCTCTGAG,0.0438 ± 0.017
10,ACACGTTG,0.348 ± 0.029
11,AGAAACGA,-0.122 ± 0.024
12,ATGCCCCG,-0.15 ± 0.0025
13,ACATCCCC,0.117 ± 0.027
14,CCTAAAGA,-0.0986 ± 0.067
15,GTAATCGA,0.0348 ± 0.0063
16,AGTGGCTA,-0.0285 ± 0.014
17,ACGAACAC,0.129 ± 0.011
18,TGGAAACA,-0.024 ± 0.027
19,GAGATTCA,-0.0564 ± 0.084
20,AGGCCTTA,-0.177 ± 0.084
21,TATTATCA,0.0502 ± 0.099
22,CAATGACG,0.17 ± 0.034
23,ATGTAAGC,-0.0318 ± 0.03
24,CATGCTTA,0.0696 ± 0.05
25,TCTAATCA,0.0383 ± 0.068

row,Sequence,PBM E-score of 8-mer
1,GGATTTTA,-0.176 ± 0.043
2,CTACGTAG,-0.173 ± 0.073
3,AAGCGTCT,0.0504 ± 0.032
4,AAATCCTG,-0.0611 ± 0.024
5,CACCGTAC,0.159 ± 0.03
6,ACTATCAA,0.0394 ± 0.032
7,CCAGCCGA,0.0686 ± 0.0022
8,CGGAACTC,-0.192 ± 0.057
9,ACAAGCGG,-0.0319 ± 0.046
10,AATAGACC,-0.2939 ± 0.0013
11,GATGTCAC,0.296 ± 0.023
12,ACCGTAAT,-0.152 ± 0.038
13,ATGAGAAC,-0.0381 ± 0.053
14,ATCATGAC,-0.131 ± 0.013
15,AAGATCTT,-0.108 ± 0.099
16,CTTTTTAA,-0.0492 ± 0.15
17,CGGCGTCA,0.223 ± 0.02
18,CTCTGCAG,-0.104 ± 0.035
19,CCCTTGAC,-0.0871 ± 0.043
20,CAACTATG,-0.0434 ± 0.046
21,CGATTTCA,0.04967 ± 0.00043
22,CAGGACTA,-0.191 ± 0.029
23,CTCGTTTA,-0.205 ± 0.12
24,CGTTTCCA,0.0866 ± 0.0024
25,CTAGGGCC,-0.325 ± 0.0048

row,Sequence,PBM E-score of 8-mer
1,CCGATCAC,0.198 ± 0.02
2,TAAACCGA,-0.151 ± 0.035
3,AGGGCCAT,-0.2 ± 0.047
4,GTTCGTCA,0.0923 ± 0.0096
5,AGCCCTGC,-0.123 ± 0.042
6,CGTGGGGA,-8e-05 ± 0.017
7,GCAGGTGA,0.414 ± 0.011
8,CTCATGTC,-0.152 ± 0.051
9,AACGGCTT,0.0898 ± 0.092
10,AGCCATGG,-0.197 ± 0.03
11,TACGGCTA,-0.131 ± 0.04
12,ATCGGTTC,-0.0281 ± 0.04
13,AGCCTTCC,-0.16 ± 0.026
14,CAGATGAG,-0.226 ± 0.046
15,AGAGCTGG,-0.174 ± 0.068
16,GGGGCCAA,-0.108 ± 0.067
17,GACTGTAA,0.0175 ± 0.046
18,GGAGCCCA,-0.193 ± 0.018
19,GCCTTTGA,-0.263 ± 0.024
20,GTAGTTAA,-0.0742 ± 0.023
21,ACTTAGGA,-0.228 ± 0.026
22,AGTAGATG,-0.13 ± 0.033
